# Test results reported in PubChem BioAssay AID686979 (National Center for Advancing Translational Sciences (NCATS), 2013).
# The campaign covered roughly 420,000 compounds. About 50,000 (12%) were called active. The inconclusive results got no clear call from the source; some entries with a clear call stand among them for comparison. Calls come from the whole dose curve; as a rule, active = well fitted inhibition curve with a large enough effect; inconclusive = small, poorly fitted or top-dose-only effect; inactive = flat fitted curve, though single readings scatter. Potencies of inconclusive entries are left out as doubtful fits.
# Test: qHTS for Inhibitors of human tyrosyl-DNA phosphodiesterase 1 (TDP1): qHTS in cells in presence of CPT; note: nearly all actives have a fitted effect of over 55% in size
# Conditions: chicken DT40 Tdp1-/-;hTDP1 cells + 20 nM CPT, ATP luminescence, 48 h; activity change, negative = growth inhibition: at 46.2 µM (top of the series)
# Procedure, shortened: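 Cell growth measured by CellTiter-Glo luminescence after a minimum 48 h, 37 C compound exposure with 20 nM CPT in Tdp1-knockout DT40 cells stably expressing hTDP1, seeded 400/well; qHTS titration format.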
# % is set by controls: 0 for no effect and ±100 for the full control effect; potency is the fitted concentration of half-maximal effect; tags give direction and shape of the fitted curve.
Structure (SMILES),Potency,"activity change, negative = growth inhibition"
CCOC(=O)C1=C(C)NC(C)=C(C(=O)OCC)C1c1ccc(C)o1,"inconclusive [inhibitor, single point]",
COc1ccc(NC(=O)O/N=C2/CCCc3ccc(OC)cc32)cc1,"inconclusive [inhibitor, single point]",
COc1ccc(-c2cc(C(=O)N/N=C/c3ccc(OC)c(COCC(F)(F)C(F)F)c3)c3ccccc3n2)c(OC)c1,active: 5.8 µM,
O=C(CN1C(=O)NC2(CCCCC2)C1=O)N1CCN(S(=O)(=O)c2cccc([N+](=O)[O-])c2)CC1,,inactive: -0.354%
CC(=O)Nc1cccc(-n2nnc(SCC(=O)Nc3ccccc3)n2)c1,,inactive: 8.64%
COc1ccc(/C=N/n2cncn2)cc1CSc1ccccn1,,inactive: 4.38%
O=C1COc2ccc(C(=O)c3ccccc3C(=O)NCc3ccccc3)cc2N1,"inconclusive [inhibitor, single point]",
CCCNC(=O)C1(C)CCN(Cc2csc3ccccc23)C1 (centres undefined),"inconclusive [inhibitor, single point]",
CC(C)N(C(=O)Cn1cc(SCC(=O)Nc2ccccc2F)c2ccccc21)C(C)C,"inconclusive [inhibitor, single point]",
NC(=O)c1nn2c(C(F)(F)F)cc(-c3ccccc3)nc2c1Br,"inconclusive [inhibitor, single point]",
Cc1[nH]c2ccccc2c1C(=O)/C=C\c1ccccc1Cl,active: 20.6 µM,
O=C(Nc1cccc(Cl)c1)C1C2CCC3C(CCC21)C3(Cl)Cl (centres undefined),"inconclusive [inhibitor, single point]",
CC(C)(C)c1ccc(C(=O)NCC(=O)N2CCC3(CC2)NCCc2[nH]cnc23)cc1,,inactive: -1.97%
Cc1ncsc1C(=O)N1N=C2/C(=C/c3ccc(N4CCOCC4)cc3)CCCC2C1c1ccc(N2CCOCC2)cc1 (centres undefined),"inconclusive [inhibitor, single point]",
O=C(NCC(c1ccco1)N1CCN(c2ccc(F)cc2)CC1)C1CCCCC1 (centres undefined),"inconclusive [inhibitor, single point]",
OC(c1cccc(F)c1)c1ncc(-c2ccc(C(F)(F)F)cc2)[nH]1 (centres undefined),"inconclusive [inhibitor, single point]",
O=C(COC(=O)/C(=C/c1cccs1)c1cccs1)NC(c1ccccc1)c1ccccc1,active: 16.4 µM,
Cc1ccccc1Nc1cc(C(=O)NCCCN2CCN(c3cccc(Cl)c3)CC2)c2ccccc2n1,"inconclusive [inhibitor, single point]",
CCCc1nn(C)c2c1C(c1cccnc1)C(C#N)=C(N)O2 (centres undefined),"inconclusive [inhibitor, single point]",
